In publication PMC4336329 (PLoS ONE, 2015):
In all, about 310,000 compounds went through this assay and about 2,200 (0.71%) showed an effect of 50% or more. Effects have a minus sign here. Some of the results follow.

The compounds below were run against human ether-à-go-go-related gene (hERG) potassium channel (human, UniProt Q12809) (assay: primary screen, population patch clamp on CHO cells stably expressing hERG).
Chain of human ether-à-go-go-related gene (hERG) potassium channel (Q12809 whole entry, looked up): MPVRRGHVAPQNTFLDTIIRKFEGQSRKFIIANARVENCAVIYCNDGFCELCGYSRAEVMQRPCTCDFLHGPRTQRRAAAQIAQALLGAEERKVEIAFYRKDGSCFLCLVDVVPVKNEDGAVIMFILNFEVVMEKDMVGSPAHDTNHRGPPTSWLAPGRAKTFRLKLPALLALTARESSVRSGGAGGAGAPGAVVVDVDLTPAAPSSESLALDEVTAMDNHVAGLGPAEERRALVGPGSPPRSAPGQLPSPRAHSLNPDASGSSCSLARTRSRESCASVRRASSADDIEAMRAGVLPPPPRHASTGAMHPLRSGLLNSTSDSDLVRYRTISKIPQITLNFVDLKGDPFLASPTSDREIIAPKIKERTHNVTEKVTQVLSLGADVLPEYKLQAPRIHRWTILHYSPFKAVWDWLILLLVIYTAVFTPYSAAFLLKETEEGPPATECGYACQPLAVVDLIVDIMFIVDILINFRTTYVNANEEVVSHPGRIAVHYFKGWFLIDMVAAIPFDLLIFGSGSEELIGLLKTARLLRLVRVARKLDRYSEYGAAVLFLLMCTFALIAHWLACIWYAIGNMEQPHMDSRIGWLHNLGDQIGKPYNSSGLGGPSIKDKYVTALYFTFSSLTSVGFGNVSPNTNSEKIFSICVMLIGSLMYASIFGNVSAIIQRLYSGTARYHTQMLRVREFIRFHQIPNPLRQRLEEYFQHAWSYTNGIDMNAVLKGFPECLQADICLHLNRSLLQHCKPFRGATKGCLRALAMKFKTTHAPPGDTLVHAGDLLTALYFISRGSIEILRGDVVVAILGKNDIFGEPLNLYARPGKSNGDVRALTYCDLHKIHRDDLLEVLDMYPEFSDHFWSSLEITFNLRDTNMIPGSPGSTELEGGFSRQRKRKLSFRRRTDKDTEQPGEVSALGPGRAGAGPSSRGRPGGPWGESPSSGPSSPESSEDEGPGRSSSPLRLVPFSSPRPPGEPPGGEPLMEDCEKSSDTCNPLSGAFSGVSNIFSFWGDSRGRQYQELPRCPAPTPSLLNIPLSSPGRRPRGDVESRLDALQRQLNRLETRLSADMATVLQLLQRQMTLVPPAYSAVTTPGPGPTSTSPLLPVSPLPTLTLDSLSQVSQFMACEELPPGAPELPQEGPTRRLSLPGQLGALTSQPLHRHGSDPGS

SMILES | hERG current change (%, negative = inhibition) at 1uM
CC(=O)N(/N=C1\Sc2ccccc2C1=O)c1ccc(C)cc1C | 13.4%
NC(=O)c1nsc(C(=O)N(c2ccccc2)C(C(=O)NC2CCCC2)c2ccncc2)c1N (stereo not shown) | 20.6%
CCc1c(C)nc(SCC(=O)Nc2c(C)n(C)n(-c3ccccc3)c2=O)[nH]c1=O | -5.61%
O=C(NCc1cccnc1)C(=O)Nc1nc(-c2ccccc2)cs1 | 1.73%
Cl.Nc1c2c(nc3ccccc13)CCCC2 | -12.6%
O=C(COC(=O)c1nn(-c2ccccc2C(F)(F)F)cc1O)c1ccc(OC(F)F)cc1 | 15.6%
Cc1cc(C(=O)COC(=O)c2cc(Cl)ccc2N)c(C)n1Cc1ccco1 | 13.2%
COc1ccccc1/C=C/C(=O)Nc1ccc2c(c1)CCC2 | -1.7%
Cc1cc(Cl)cc(Cl)c1OCCCCN(C)C.O=C(O)C(=O)O | 9.47%
O=C(CCSCc1ccccc1F)NCc1ccc(F)cc1 | -0.0557%
CC1CCN(C(=S)c2ccc(N(C)C)cc2)CC1 | 10.6%
O=C(NCCC(=O)N1CCCC(C(F)(F)F)C1)c1ccccc1Cl (stereo not shown) | 12.9%
CCN1CCN(c2ccc(S(=O)(=O)N3CCCCC3)cc2NC(=O)COc2cc(C)ccc2Cl)CC1 | 10.2%
C/C(=N/NC(=O)c1ccn(C)n1)c1ccncc1 | 11.4%
COc1ccc(N(CC(=O)NCCSc2ccc(C)cc2)S(=O)(=O)c2ccccc2)c(OC)c1 | 15.9%
CS(=O)(=O)c1nc(S(=O)(=O)c2ccc(Cl)cc2)c(NCCN2CCOCC2)s1 | 10.7%
COC(=O)C1=C(c2ccc(OC)c(OC)c2)C[C@@H]2CC[C@H]1N2C(=O)NCCOc1ccccc1 | 10.5%
O=C(O)CCCCCn1c(SCC(=O)c2ccc(O)c(O)c2)nc2ccsc2c1=O | 9.99%
Cc1cccc(NC(=O)c2ccc(S(=O)(=O)N(C)CC3CCCO3)cc2)c1C (stereo not shown) | 7.8%
CCC(=O)NC(Nc1c(C)n(C)n(-c2ccccc2)c1=O)C(Cl)(Cl)Cl (stereo not shown) | 13.7%
COc1ccc(C(=O)NCCSC2CCCCC2)cc1 | 4.88%
Cc1cc(CO)nn1-c1ccc([N+](=O)[O-])cc1 | 17.9%

SMILES | hERG current change (%, negative = inhibition) at 1uM
Cc1ccc(NCC(=O)c2ccccc2)cc1Cl | 13.7%
Cc1sc2ncnc(SC(C)C(=O)N3c4ccccc4Sc4ccccc43)c2c1C (stereo not shown) | 6.01%
Cc1[nH]c(C)c(S(=O)(=O)N2CCN(c3cccc(C(F)(F)F)c3)CC2)c1C(=O)N1CCCC1 | 19.9%
COc1ccc(NC(=O)C2CC(c3c(F)cccc3Cl)=NO2)cc1 (stereo not shown) | 6.39%
COc1ccc(NC(=O)N2CCN(c3ccc([N+](=O)[O-])cc3)CC2)cc1 | -14.2%
COC(=O)c1nc(Cl)c(Cl)c(N)c1Cl | 6.62%
CCCCCCC1CC(CSc2ncn[nH]2)OC1=O (stereo not shown) | -1.78%
CCN1C(Nc2ccccc2)=NC[C@@H]1CC(C)C | 10.1%
COC(=O)CSc1nnc(CNc2ccc(OC)cc2)n1C | 11.5%
COc1ccc2cc(CN(CCCN3CCOCC3)Cc3nnnn3C3CCCCC3)c(=O)[nH]c2c1 | -0.0035%
CCc1ccc(/C=C2/SC(=S)N(CCC(=O)NCCCN3CCOCC3)C2=O)cc1 | -9.04%
Cc1cc(=O)oc(C)c1C(=O)Nc1ccc2ncccc2c1 | 0.128%
O=C(NC1CCCCCC1)c1cc2n(n1)C(C(F)(F)F)CC(c1ccco1)N2 (stereo not shown) | 12.3%
COc1ccc(-c2[nH]ncc2CN(C)C(C)c2ccon2)c(OC)c1 (stereo not shown) | 12.9%
COc1ccccc1OCC(O)Cn1c(=N)n(Cc2ccccc2)c2ccccc21.Cl (stereo not shown) | -39.6%
Cc1nc2sc(C(c3ccc(Cl)cc3)N3CCN(C(=O)c4ccco4)CC3)c(O)n2n1 (stereo not shown) | -19%
COC(=O)C1=C(C(=O)OC)[C@@H]2N(C)c3ccccc3[C@@]23C[C@@H](CO)N(C(=O)NCCBr)C3=N1 | 5.14%
Cc1[nH]c2ccc(C(=O)N3CCN(Cc4ccccc4)CC3)cc2c1C | 0.829%
CCOc1ccc(Br)cc1S(=O)(=O)Nc1cccc(S(=O)(=O)N(CC)CC)c1 | 9.48%
COc1ccc(CCCc2nc3ccccc3[nH]2)cc1 | 3.86%
CC(=O)C1=C(C)NC(=O)NC1c1cccc(O)c1 (stereo not shown) | 9.2%
